In patent US12653914B2, “Compounds for fast and efficient click release” (priority 2019, dated 2026):

Experiment: Label release from radiolabeled mAb-conjugated TCO triggers in vitro, SEC with radioactivity detector
Conditions: activator 2.4 (ca. 30 eq); PBS 37° C., 15-24 h; radiolabeled conjugate (^89Zr or ^111In)
Procedure: mAb conjugate radiolabeled with ^111In and ^89Z (ca. 10 μg) was incubated with an excess (ca. 30 eq) of activator or without activator in 100 μL PBS at 37° C. After 15-24 h incubation the mixtures were analyzed by SEC with radioactivity detector and the amount of released Label was quantified.

B1: girentuximab-1.25: mAb girentuximab functionalized with 1.25 via reduced hinge and maleimide; radiolabeled with ^111In (conjugate, chains of the INN, looked up)
heavy: DVKLVESGGGLVKLGGSLKLSCAASGFTFSNYYMSWVRQTPEKRLELVAAINSDGGITYYLDTVKGRFTISRDNAKNTLYLQMSSLKSEDTALFYCARHRSGYFSMDYWGQGTSVTVSS[omitted - human IgG1 constant region]
light: DIVMTQSQRFMSTTVGDRVSITCKASQNVVSAVAWYQQKPGQSPKLLIYSASNRYTGVPDRFTGSGSGTDFTLTISNMQSEDLADFFCQQYSNYPWTFGGGTKLEIKRTVAAPSVFIFPPSDEQLKSGTASVVCLLNNFYPREAKVQWKVDNALQSGNSQESVTEQDSKDSTYSLSSTLTLSKADYEKHKVYACEVTHQGLSSPVTKSFNRGEC
modifications: conjugated with 1.25; 111In radiolabel
notes: radiolabeled with ^111In
release (%): 93.7%
